This note sets out measurements from PubChem BioAssay (NCI).

The structures appear in SMILES notation.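 Each compound was tested at five concentrations against cells in 96-well plates for 48 hours. Abbreviation: GI50, concentration required for 50% inhibition of growth.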 Certain results were filed several times, with different values. The list is limited to them. The source may hold further records. Values given together are repeats (runs, samples, wells, individuals or studies). A tag in brackets gives the origin of a value. Letters hold for one entry only.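 TGI denotes the concentration required for complete inhibition of growth.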 *1 amine or outer side, *2 acyl side, *3 side chain or, on linkers, in order; H or OH if unused. Where a SMILES comes first, the peptide text is derived from it. Bridges are numbered along the chain shown (N, C = ends). Roman numbers before positions name the chains, in order. [ ]: non-standard residue; d: D form. Actinocin(1to9) = Cc1c2oc3c(C)ccc(C(=O)[*:2])c3nc-2c(C(=O)[*:1])c(N)c1=O; NMeY = CN[CH](Cc1ccc(O)cc1)C(=O)O; Sar = CNCC(=O)O

Among the test systems are NCI-H522 lung; OVCAR-5 ovarian; OVCAR-4 ovarian; PC-3 prostate; EKVX NSCLC; IGROV1 ovarian; HOP-92 NSCLC; HOP-62 NSCLC; A498 renal; UACC-62 melanoma; NCI-H23 lung; MDA-MB-231 breast; M14 melanoma; OVCAR-8 ovarian; UO-31 renal; SK-MEL-2 melanoma; DU-145 prostate; T-47D breast; SK-MEL-28 melanoma; SK-MEL-5 melanoma; SF-268 CNS; KM12 colon; LOX IMVI melanoma; UACC-257 melanoma; OVCAR-3 ovarian; TK-10 renal; SK-OV-3 ovarian; HCC-2998 colon; HCT-15 colon; RXF 393 renal; MDA-MB-435; HT29 colon; SF-539 CNS; MALME-3M melanoma; SW-620 colon.

Holding throughout (test): growth of human tumour cells (NCI), 48 h

In the case of `CCC1=C(CC2NCCc3ccccc32)CC2c3cc(OC)c(OC)cc3CCN2C1` (stereo not drawn), the TGI is 15.7 µM [sample A] and 1.12 µM [sample B] in the test on NCI-H522 lung; 80.5 µM [sample A] and 2.32 µM [sample B] in the test with OVCAR-5 ovarian; 19.6 µM [sample A] and 835 nM [sample B] with OVCAR-4 ovarian; 19.2 µM [sample A] and 1.6 µM [sample B] with PC-3 prostate; 35.2 µM [sample A] and 1.12 µM [sample B] in the test with EKVX NSCLC.

For the compound `COc1ccc(CC2C(=O)OC(C)C(NC(=O)c3c4nc5c(C(=O)NC6C(=O)NC(C(C)C)C(=O)N7CCCC7C(=O)N(C)CC(=O)N(C)C(Cc7ccc(OC)cc7)C(=O)OC6C)ccc(C)c5oc-4c(C)c(=O)c3N)C(=O)NC(C(C)C)C(=O)N3CCCC3C(=O)N(C)CC(=O)N2C)cc1` (stereo not drawn) (I: TVP[Sar][NMeY](Me) / II: TVP[Sar][NMeY](Me); ester I:1-I:C, II:1-II:C; linker I:N-II:N via Actinocin(1to9); configuration not given here), the TGI with IGROV1 ovarian was < 10 nM [sample A, 1 test] and > 577 nM [sample B, mean of 2 tests]; with HOP-92 NSCLC, 33 nM [sample A, mean of 2 tests] and 480 nM [sample B, mean of 2 tests]; in the test on HOP-62 NSCLC, < 10 nM [sample A] and 195 nM [sample B]; with A498 renal it was < 10 nM [sample A] and 188 nM [sample B]; in the test on UACC-62 melanoma, < 10 nM [sample A] and 112 nM [sample B]; with NCI-H23 lung it was < 10 nM [sample A] and 143 nM [sample B]. Also, the TGI with MDA-MB-231 breast is < 15 nM [sample A, mean of 2 tests] and > 722 nM [sample B, mean of 2 tests]; in the test on M14 melanoma, < 10 nM [sample A, 1 test] and 210 nM [sample B, mean of 2 tests]; in the test on OVCAR-8 ovarian, 19.1 nM [sample A] and 332 nM [sample B]; in the test with UO-31 renal, 21.3 nM [sample A, mean of 2 tests] and 684 nM [sample B, mean of 2 tests]; in the test with SK-MEL-2 melanoma, < 10 nM [sample A, 1 test] and 165 nM [sample B, mean of 2 tests]; in the test on DU-145 prostate, < 10 nM [sample A] and > 1 µM [sample B]. Besides, the TGI was < 10 nM [sample A] and > 291 nM [sample B] in the test on T-47D breast; < 10 nM [sample A] and 190 nM [sample B] in the test with SK-MEL-28 melanoma; < 10 nM [sample A] and > 445 nM [sample B] in the test on SK-MEL-5 melanoma; < 10 nM [sample A, 1 test] and > 493 nM [sample B, mean of 2 tests] in the test with SF-268 CNS; < 10 nM [sample A] and 222 nM [sample B] in the test with KM12 colon; < 10 nM [sample A, 1 test] and > 1 µM [sample B, 1 test] in the test with LOX IMVI melanoma. The TGI in the test with UACC-257 melanoma was < 10 nM [sample A] and 484 nM [sample B]; in the test with OVCAR-3 ovarian, < 10 nM [sample A] and 226 nM [sample B]; with SK-OV-3 ovarian, < 10 nM [sample A, 1 test] and 983 nM [sample B, mean of 2 tests]; in the test on HCC-2998 colon, 10.4 nM [sample A] and 218 nM [sample B]; in the test with RXF 393 renal it was < 10 nM [sample A, 1 test] and 143 nM [sample B, mean of 2 tests]; in the test on MDA-MB-435 it was < 10 nM [sample A] and 201 nM [sample B]. In addition, the TGI with PC-3 prostate is 23.9 nM [sample A] and 245 nM [sample B]; with HT29 colon, 10.6 µM [sample A, 1 test] and 215 nM [sample B, mean of 2 tests]; with SF-539 CNS it was < 10 nM [sample A] and 284 nM [sample B]; in the test with MALME-3M melanoma it was < 10 nM [sample A] and 197 nM [sample B]; in the test on SW-620 colon, < 10 nM [sample A] and > 1 µM [sample B]. The GI50 in the test with MDA-MB-231 breast was < 10 nM [sample A, mean of 2 tests] and 178 nM [sample B, mean of 2 tests]; in the test on UO-31 renal it was < 10 nM [sample A, mean of 2 tests] and 147 nM [sample B, mean of 2 tests]; with TK-10 renal, < 10 nM [sample A, 1 test] and 130 nM [sample B, mean of 2 tests]; with HCT-15 colon, < 10 nM [sample A, 1 test] and 175 nM [sample B, 1 test].
